Consider 29 molecules from article PMC11995724, “Antibiotic target discovery by integrated phenotypic and activity-based profiling of electrophilic fragments” (Cell chemical biology, 2025).

About 110 (3.4%) of roughly 3,200 compounds showed an effect of 50% or more. The list shows a part of the results.

The experiment concerns T1, V. cholerae SAD30.
T1 construct: SAD30
Further details: species or system S. aureus MSSA476 (TSB) or V. cholerae SAD30 (LB); 384-well bacterial growth screen at 25 uM, OD600 relative to DMSO control. The note with it: relative growth, OD600, LB; 25 µM; inhibitor.
For the molecule `CC(Cl)C(=O)NC(c1ccc(F)cc1)c1cnn(C)c1` (centres unmarked) [7-C19, 2-chloro-N-[(4-fluorophenyl)(1-methyl-1H-pyrazol-4-yl)methyl]propanamide], the “% of control remaining” value amounted to 79.2995%. On to `Cc1cc(C(=O)CCl)c(C)n1Cc1ccc(F)cc1` [10-N17, 2-chloro-1-{1-[(4-fluorophenyl)methyl]-2,5-dimethyl-1H-pyrrol-3-yl}ethan-1-one], for which the “% of control remaining” value was 95.5387%. `O=C(CCl)Nc1nc2c(s1)CCc1ccccc1-2` [6-D03, 2-chloro-N-{4H,5H-naphtho[1,2-d][1,3]thiazol-2-yl}acetamide]: the “% of control remaining” value was determined as 105.868%. As for `CC(Cl)C(=O)N1Cc2ccccc2OCC1C` (centres unmarked) [7-F11, 2-chloro-1-(3-methyl-2,3,4,5-tetrahydro-1,4-benzoxazepin-4-yl)propan-1-one], the figure is 75.731%; as for `Cc1cc(C(=O)CCl)c(C)n1-c1ccc(Cl)c(Cl)c1` [10-D18, 2-chloro-1-[1-(3,4-dichlorophenyl)-2,5-dimethyl-1H-pyrrol-3-yl]ethan-1-one], 108.475%; as for `C=CC(=O)Nc1ccc2c(c1)N(CC#N)CC2` [1-C19, N-[1-(cyanomethyl)-2,3-dihydro-1H-indol-6-yl]prop-2-enamide], 88.4903%. Turning to `O=C1C=CC(=O)N1c1ccc(OC(F)F)cc1` [10-P11, 1-[4-(difluoromethoxy)phenyl]-2,5-dihydro-1H-pyrrole-2,5-dione], the “% of control remaining” value stood at 36.7816%.

For the molecule `CCCCNC(=O)C(C#N)=Cc1cc(F)ccc1F` [8-K08, N-butyl-2-cyano-3-(2,5-difluorophenyl)prop-2-enamide], the “% of control remaining” value is reported as 68.0489%.

Turning to `C=CC(=O)Nc1ccccc1C(=O)N(C)C(C)C` [3-H17, N-methyl-2-(prop-2-enamido)-N-(propan-2-yl)benzamide], the “% of control remaining” value is recorded as 87.8552%. As for `COc1cccc(NC(=O)CN(C)C(=O)CCl)c1` [5-A03, 2-chloro-N-{[(3-methoxyphenyl)carbamoyl]methyl}-N-methylacetamide], the figure is 110.119%.

In the case of `C=CC(=O)N1CCC(C(=O)NCc2ccc(-c3n[nH]c(C)n3)cc2)CC1` [3-M21, N-{[4-(5-methyl-1H-1,2,4-triazol-3-yl)phenyl]methyl}-1-(prop-2-enoyl)piperidine-4-carboxamide], the “% of control remaining” value is listed as 100.382%. `C=CC(=O)Nc1cccc(C(O)C(F)(F)F)c1` (centres unmarked) [1-M16, N-[3-(2,2,2-trifluoro-1-hydroxyethyl)phenyl]prop-2-enamide]: the “% of control remaining” value is reported as 87.4439%. Then `O=C1C=CC(=O)N1c1ccc(F)cc1F` [10-F15, 1-(2,4-difluorophenyl)-2,5-dihydro-1H-pyrrole-2,5-dione], with 26.4952%; and `N#CC1=C(N2CCOCC2)SC(c2ccc([N+](=O)[O-])cc2)NC1=O` (centres unmarked) [9-D08, 6-(morpholin-4-yl)-2-(4-nitrophenyl)-4-oxo-3,4-dihydro-2H-1,3-thiazine-5-carbonitrile], with 84.3644%; and `C=CC(=O)NC[C@@H]1C[C@H](F)CN1Cc1ccnn1C` [2-E05, N-{[(2S,4S)-4-fluoro-1-[(1-methyl-1H-pyrazol-5-yl)methyl]pyrrolidin-2-yl]methyl}prop-2-enamide], with 94.2102%. Then `C=CC(=O)N1CCC(O)(c2ccccc2)CC1` [1-E15, 1-(4-hydroxy-4-phenylpiperidin-1-yl)prop-2-en-1-one], with 85.5007%; and `CC(Cl)C(=O)N1CCCC(CNC(=O)Nc2ccc(F)cc2)C1` (centres unmarked) [6-J22, 3-{[1-(2-chloropropanoyl)piperidin-3-yl]methyl}-1-(4-fluorophenyl)urea], with 101.469%.

`Cn1cc(C(=O)CCl)nn1` [10-M19, 2-chloro-1-(1-methyl-1H-1,2,3-triazol-4-yl)ethan-1-one]: the “% of control remaining” value is 0%. In the case of `Cc1nc2n(n1)CCN(C(=O)C(C)Cl)C2` (centres unmarked) [5-A04, 2-chloro-1-{2-methyl-5H,6H,7H,8H-[1,2,4]triazolo[1,5-a]pyrazin-7-yl}propan-1-one], the “% of control remaining” value came out at 108.438%. Take `O=C(CCl)c1c[nH]c2ccncc12` [10-K05, 2-chloro-1-{1H-pyrrolo[3,2-c]pyridin-3-yl}ethan-1-one]: the “% of control remaining” value amounted to 101.305%. Then `COc1ccc([N+](=O)[O-])cc1NC(=O)CCl` [4-P17, 2-chloro-N-(2-methoxy-5-nitrophenyl)acetamide], with 111.969%; and `O=C1C=CC(=O)N1c1cc([N+](=O)[O-])ccc1Cl` [10-H15, 1-(2-chloro-5-nitrophenyl)-2,5-dihydro-1H-pyrrole-2,5-dione], with 28.2096%. For the molecule `C=CC(=O)NC[C@@H]1C[C@H]1C1CCCCC1` [1-O19, N-{[(1R,2S)-2-cyclohexylcyclopropyl]methyl}prop-2-enamide], the “% of control remaining” value was found to be 71.5994%. Consider `Cc1cccc(NC(=O)C(C#N)=Cc2ccc(F)c(F)c2)c1` [8-I16, 2-cyano-3-(3,4-difluorophenyl)-N-(3-methylphenyl)prop-2-enamide], for which the “% of control remaining” value is 63.4262%.

As for `C=CC(=O)Nc1ccc(C(F)C(F)(F)F)cc1` (centres unmarked) [1-O20, N-[4-(1,2,2,2-tetrafluoroethyl)phenyl]prop-2-enamide], the “% of control remaining” value amounted to 84.9028%. Then `COc1ccc(NC(=O)C(C)Cl)c([N+](=O)[O-])c1` (centres unmarked) [6-B08, 2-chloro-N-(4-methoxy-2-nitrophenyl)propanamide], with 90.3972%. As for `Cc1ccc(C)c(C=C(C#N)C(=O)NC(C)C)c1` [9-O22, 2-cyano-3-(2,5-dimethylphenyl)-N-(propan-2-yl)prop-2-enamide], the “% of control remaining” value turned out to be 95.9211%.

In the case of `C=CC(=O)NCCN1CCOCC1C` (centres unmarked) [2-I05, N-[2-(3-methylmorpholin-4-yl)ethyl]prop-2-enamide], the “% of control remaining” value is 90.3503%.

For the molecule `C=CC(=O)NCC(C)Cn1nccc1C` (centres unmarked) [1-H14, N-[2-methyl-3-(5-methyl-1H-pyrazol-1-yl)propyl]prop-2-enamide], the “% of control remaining” value came out at 80.2257%.
